Measured values reported in the supplement of paper PMC12217912.
The other results are listed elsewhere or left out. Sequences were assembled here from the parent chain. Values near 0.05 are background.

B1: TEV protease; numbered along this chain (parent)
chain: MGESLFKGPRDYNPISSSICHLTNESDGHTTSLYGIGFGPFIITNKHLFRRNNGTLVVQSLHGVFKVKDTTTLQQHLVDGRDMIIIRMPKDFPPFPQKLKFREPQREERICLVTTNFQTKSMSSMVSDTSCTFPSGDGIFWKHWIQTKDGQCGSPLVSTRDGFIVGIHSASNFTNTNNYFTSVPKNFMELLTNQEAQQWVSGWRLNADSVLWGGHKVFMVKPEEPFQPVKEATQL

Variants of: B1
Assay: raw area under fraction-flipped curve 0-4 h after induction (AUC4h, not background-subtracted), DNA-recorder readout of cleavage of the substrate (dimensionless); higher = more cleavage of the substrate by the protease variant
Conditions: temperature: 34 °C; time window: 0-4 h after rhamnose induction
Description: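 In vivo DNA recorder in E. coli TOP10(DE3) ΔrhaA at 34 °C. Each TEVp single-site mutant (parent TEVp 0) is paired with a single-site variant of the 7-mer TEVs (canonical ENLYFQ|S). The substrate sits between flexible linkers in a Bxb1-sfGFP-TEVs-SsrA fusion, so cleavage stabilises Bxb1 and speeds flipping of a recombination array, read by NGS. The value is the raw area under the fraction-flipped curve over 0-4 h after rhamnose induction (AUC4h), with ≥20 reads per time point. It is not background-subtracted; inactive controls average about 0.047.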
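Also: Bxb1 expression induced with 0.2% (w/v) L-rhamnose at OD600 near 0.5, cultures sampled hourly, flipped fraction per protease–substrate barcode pair counted by paired-end Illumina sequencing.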

| Variant | area with substrate ENAYFQS | area with substrate ENCYFQS | area with substrate ENDYFQS | area with substrate ENFYFQS | area with substrate ENGYFQS | area with substrate ENHYFQS | area with substrate ENPYFQS | area with substrate ENRYFQS | area with substrate ENSYFQS | area with substrate ENTYFQS | area with substrate ENYYFQS | area with substrate ENEYFQS | area with substrate ENKYFQS | area with substrate ENNYFQS | area with substrate ENQYFQS | area with substrate ENVYFQS | area with substrate ENWYFQS | area with substrate ENMYFQS | area with substrate ENIYFQS |
| --- | --- | --- | --- | --- | --- | --- | --- | --- | --- | --- | --- | --- | --- | --- | --- | --- | --- | --- | --- |
| Q97I | 0.0535 | 0.0685 | 0.0592 | 0.0542 | 0.0729 | 0.0533 | 0.069 | 0.0591 | 0.0449 | 0.0667 | 0.0507 | – | – | – | – | – | – | – | – |
| K98E | 0.0627 | – | 0.0585 | 0.121 | 0.0516 | – | – | 0.0512 | 0.0618 | 0.0284 | – | 0.0551 | 0.0627 | 0.0706 | 0.0732 | 0.091 | 0.0582 | – | – |
| K100S | 0.0707 | 0.0713 | 0.0562 | 0.061 | 0.0581 | 0.0612 | 0.056 | 0.0689 | 0.0641 | – | – | 0.0646 | – | – | 0.0588 | – | – | – | – |
| R102Q | 0.0497 | 0.0708 | 0.0514 | – | 0.0453 | 0.0384 | 0.0486 | 0.051 | 0.05 | – | – | 0.0411 | 0.0512 | – | 0.0488 | – | – | 0.0559 | – |
| R102W | 0.0479 | 0.0397 | 0.0569 | – | 0.0608 | – | 0.0412 | 0.0431 | 0.0424 | – | 0.0475 | 0.0565 | 0.0595 | – | 0.0475 | 0.0505 | 0.0524 | 0.0286 | – |
| E103W | 0.062 | 0.0447 | 0.0502 | 0.054 | 0.0569 | 0.0556 | 0.0543 | 0.0464 | 0.0511 | 0.0589 | 0.0468 | 0.0558 | 0.0666 | 0.0633 | 0.0663 | 0.0683 | – | 0.0591 | 0.0898 |
| Q105G | 0.0678 | 0.0598 | 0.0617 | – | 0.0665 | 0.0586 | 0.0605 | 0.0684 | 0.0548 | 0.0586 | 0.0429 | 0.0827 | – | 0.0743 | 0.0618 | 0.073 | – | – | – |
| R106H | 0.0534 | 0.0732 | 0.0846 | 0.055 | 0.0718 | 0.0521 | 0.0743 | 0.0613 | 0.0625 | 0.0622 | 0.0629 | – | 0.0603 | 0.0611 | 0.0667 | 0.0599 | 0.0556 | – | 0.141 |
| R106W | 0.0671 | 0.0614 | 0.0595 | 0.0679 | 0.0665 | 0.0522 | 0.0541 | 0.0583 | 0.0689 | 0.0692 | 0.0624 | 0.0647 | 0.0565 | 0.0652 | 0.0584 | 0.0701 | 0.0528 | 0.0813 | 0.136 |
| E107M | 0.0481 | 0.0768 | 0.0632 | – | – | 0.0643 | 0.0618 | 0.0455 | 0.067 | – | – | – | 0.0566 | 0.0843 | 0.0495 | – | – | – | 0.0912 |
| E107N | 0.0521 | 0.0638 | 0.0513 | 0.0645 | 0.0924 | 0.0627 | 0.0656 | 0.0564 | 0.0619 | 0.0787 | – | 0.0631 | 0.0651 | – | 0.0748 | 0.0813 | – | – | 0.116 |
| E107S | 0.0674 | 0.0653 | 0.0535 | 0.0733 | – | 0.0606 | 0.0605 | 0.0485 | 0.0591 | 0.0593 | – | 0.0683 | 0.0606 | 0.0643 | 0.0607 | 0.086 | 0.0112 | 0.0761 | 0.109 |
